Experimental data: the RNAGym collection of RNA variant scans (doi:10.7554/elife.90254)
Read counts are not given, so values of variants with three or more changes are uncertain.

B1: LINE1-mini (parent)
chain: GGCAGAGCUCAACACAGCGUGGCAAAGUGGCUGUGGCUAGACUGCC

Variants of: B1
Test: self-cleavage, relative activity (ratio to wild type); higher = more cleavage; in vitro, sequencing; the parent is a self-cleaving ribozyme

Variant	self-cleavage
GCCAGAGCUCAACACAGCGUGGAAAAGUCGCUGUGGCUCGACUGCC [G2C C23A G29C A39C]	0.13
GCCAGAGCUCAAGAGAGCGUGACAAAGUCGCCGUGCCUAGACUGCC [G2C C13G C15G G22A G29C U32C G36C]	0
GCCAGAGCUCAACACAGGGUGGCAAAGUGGCUGUGGCUAGACUGCG [G2C C18G C46G]	0.1
GCCAGAGCUCAACACAGCGUGGCAAAGUGGCUGUGGCUAGAAAGCA [G2C C42A U43A C46A]	0.01
GCCAGAGCUCAACACAGGCCGGCAAAGUGGCUGUGGCUAGACUGCC [G2C C18G G19C U20C]	0.14
GCCAGAGCUCAACAAAGCGUGGCAAGGUGGCUGUGGCUAGACUGCC [G2C C15A A26G]	0.03
GCCAGAGCUCAACAAAGCGUGGCAAAGUGGCUUUGGCUAGGCUGCC [G2C C15A G33U A41G]	0.07
GCCAGAGCUCAACACAGCGUGGUAAAGUGGCUUUGGCUACAGUGCC [G2C C23U G33U G40C C42G]	0.03
GCCAGAGCUCAAUACAGCGUGGCAAGGUGGCUGUGGCUAGACUGCC [G2C C13U A26G]	0.02
GCCAGAGCUCAACAUAGCGUGGCAAAGUUGCUAUGGCUAGACUGCC [G2C C15U G29U G33A]	0.71
GCCAGAGCUCAACACAGCGUGGGAUAUUAGCUGUGGCUAGACUGCU [G2C C23G A25U G27U G29A C46U]	0.07
GCCAGAGCUCAACAAAGCGUGGCAAAGUGGCUGGGGCUCGACUUCC [G2C C15A U34G A39C G44U]	0.01
GCCAGAGCUCAAUACAGCGUGGCAAACUGGCUAUGGCUGGACUGCU [G2C C13U G27C G33A A39G C46U]	0.08
GCCAGAGCUCAACAAAGCGUGGCAAAGUGGCUGUGGCUAGACUGCU [G2C C15A C46U]	0.04
GCCAGAGCUCAACAUAGCGUGGCAAAGUGGCGCGGGCUAGACUGCA [G2C C15U U32G G33C U34G C46A]	0.01
GCCAGAGCUCAAAACAGCGUGACAAAGUCGCUGUGGAUAGACUGCA [G2C C13A G22A G29C C37A C46A]	0.09
GCCAUAGCUCUAAACAGCGUGGCAAAGUGGCUGUGGCUAGACUGCC [G2C G5U A11U C13A]	0.02
GCCAGAGCUCAACACAGAGUGGCAAAGUGGCUUUGGCUAGACUGUC [G2C C18A G33U C45U]	0.01
GCCAGAGCUCAACACAGCGUGGAAAAGUGGCUGUGGAUAUACUGCC [G2C C23A C37A G40U]	0.02

Variant	self-cleavage
GCCAGAGCUCAACACAGCGUGGCAAAGUGGGUGUGGAUAGACUGCC [G2C C31G C37A]	0.02
GCCAGAGCUCAACACAGCGUGGGAAAGUGGCUGUGGCUUGACUGCC [G2C C23G A39U]	0.09
GCCAGAGCUCAAAACACCGUGGCUAGGUGGCUGUGGCUAGAAUGCC [G2C C13A G17C A24U A26G C42A]	0.23
GCCAGAGCUUAACACAGCGUGGCAAAGUGGCUGUGGCAAGACUGCC [G2C C10U U38A]	0.01
GCCAGAGCUCAAGACUGCGUGGCAAAGUGGCUGUGGCUAGACUGCC [G2C C13G A16U]	0.11
GCCAGAGCUCAACACAGGGGGGCAAAGUGGCUGUGGUUACAUUGCC [G2C C18G U20G C37U G40C C42U]	0.01
GCCAGAGCUCAACAAAGGGUGGCAAAGUGGCUGUGGCUAGACUGCC [G2C C15A C18G]	0.01
GCCAGAGCUCAAGACAGCAUGGGAAAGUGGCUGUAGCUAGACUGUC [G2C C13G G19A C23G G35A C45U]	0.58
GCCAGAGCUCAACACAGCGUGGGAAAGUGGUUGUGGGUGGAUUGCC [G2C C23G C31U C37G A39G C42U]	0.02
GCCAGAGCUCAACACAGCGUGGUAAAGUGGCUGUGGCUAGACUGGU [G2C C23U C45G C46U]	0.32
GCCAGAGCUGAACACAGCGUGGCAAAGUGGCUGUGACUAGACUUCC [G2C C10G G36A G44U]	0
GCCACAGCUCAACACAGUGUGGCAAAGUGGCUGUGGCUAGACUGCC [G2C G5C C18U]	0.01
GCCAGAGCUCAAUAAAGCGUGGCAAAGUGGCUGUCGCUAGGCUUCC [G2C C13U C15A G35C A41G G44U]	0.01
GCCAAAGCUCAACACAGAGGGGCAAAGUGACUGUGGCUAGAUUGCC [G2C G5A C18A U20G G30A C42U]	0.01
GCCAGAGCUCAACAUAGCGUGGUAAAGUGGCUGUGGCUAGACUGCC [G2C C15U C23U]	0.02
GCCAGAGCUUAACACAGCGUGGCAAUGUGUCUGUGGCUAGACUGCC [G2C C10U A26U G30U]	0.06
GCCAGAGCUCAAGAAAACGUGGCAAAGUGGCUGUGGCUAGACUGCC [G2C C13G C15A G17A]	0.02
GCCAGAGCUCAACAUAGCGUGGCAAAUUUGCUGUGGCUAGACUGCC [G2C C15U G27U G29U]	0.11
GCCAGAGCUCAACAGAGCGUGGCAAAGUGGCUGUGGCUAGACUUCG [G2C C15G G44U C46G]	0.01

Variant	self-cleavage
GCCAGAGCUCAACACAGCGUGGAAAAGUGACUAUGGCUAGACUGCC [G2C C23A G30A G33A]	0.1
GCCAGAGCUCAACAGAGCGUGGCAAAGUGGCUGUGGCUAGACUACC [G2C C15G G44A]	0
GCCAGAGCUCAACACAGAGCGGCAAAGUUGCUGUGGCUAGACUGCC [G2C C18A U20C G29U]	0.38
GCCAUGGCUCAACACAGCGUGGCAAAGUGGUUGUGGCUAAACUGUC [G2C G5U A6G C31U G40A C45U]	0.01
GCCAGAGCUUAACACAGCGUGGCAAAGUGGCGGUGGCUAGUCUGCC [G2C C10U U32G A41U]	0.01
GCCAGAGCUCAACACAGCGUGGUAAGGUGGCUGUGGCUAGACUGCC [G2C C23U A26G]	0.04
GCCAGAGCUCAACACAGCGUGGAAAAGUGUCUUUGGCUAGACUGCC [G2C C23A G30U G33U]	0.04
GCCAUAGAUCAACCCAGCGUGGCCAAGUGGCUGUGGCUAGACUGCC [G2C G5U C8A A14C A24C]	0.1
GCCACAGCUCAACACAGAGUGGCAUAGUGGCUGUGGCUAGACUGAC [G2C G5C C18A A25U C45A]	0.01
GCCAGAGCUCAACACAGUGUGGCAAAUUGGCUGUGGCUUGACUGCC [G2C C18U G27U A39U]	0.08
GCCAGAGCUCAACACAGCGUGGCAAAGUGGAUGUAGCUAGACUGCC [G2C C31A G35A]	0.02
GCCAGAGCUCAACAGAGCGUGGCAAAGUGGCUGUCGCUCGACUGCC [G2C C15G G35C A39C]	0.02
GCCAGAGCUCAACACAGCGUGGGAAGGUGGCUGUCGCUAGACUGCC [G2C C23G A26G G35C]	0.03
GCCAGAGCUCAAAACAGGGUGGCAAAGUGGCUGUGGCUUGACUGUC [G2C C13A C18G A39U C45U]	0.13
GCCAGAGCUCAACAGAGCGUGGCAAAGUGGCUUUGGCUAGACUGCC [G2C C15G G33U]	0.07
GCCAGAGCUCAAGACAGCGUGGCAAAGUGGCUGUUGCUAGACUGCC [G2C C13G G35U]	0.04
GCCACAGCUCCAGACAGCGUGUCAAAGAGGCUGUGGCUAGACUGCC [G2C G5C A11C C13G G22U U28A]	0.01
GCCAGAGCUCAACAGAGCGUGGCAAAGUGGAUGUGGCUAGACUGCC [G2C C15G C31A]	0.02
